# Results reported in patent publication EP1076704B1 (AiCuris GmbH & Co. KG, dated 2007).
# T1: high affinity IL-2 receptor IL-2Rαβγ on human PHA-blasts (activated T cells) (human, UniProt P01589 22-272; P14784 27-551; P31785 23-369)
# T1 sequence (looked up) 1: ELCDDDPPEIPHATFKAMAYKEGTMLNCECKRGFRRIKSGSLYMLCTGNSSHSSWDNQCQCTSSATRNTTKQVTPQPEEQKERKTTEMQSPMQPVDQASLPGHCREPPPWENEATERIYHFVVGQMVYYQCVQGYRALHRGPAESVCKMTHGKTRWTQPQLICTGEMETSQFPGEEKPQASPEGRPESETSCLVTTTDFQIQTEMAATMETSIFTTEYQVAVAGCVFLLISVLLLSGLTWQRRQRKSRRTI
# T1 sequence (looked up) 2: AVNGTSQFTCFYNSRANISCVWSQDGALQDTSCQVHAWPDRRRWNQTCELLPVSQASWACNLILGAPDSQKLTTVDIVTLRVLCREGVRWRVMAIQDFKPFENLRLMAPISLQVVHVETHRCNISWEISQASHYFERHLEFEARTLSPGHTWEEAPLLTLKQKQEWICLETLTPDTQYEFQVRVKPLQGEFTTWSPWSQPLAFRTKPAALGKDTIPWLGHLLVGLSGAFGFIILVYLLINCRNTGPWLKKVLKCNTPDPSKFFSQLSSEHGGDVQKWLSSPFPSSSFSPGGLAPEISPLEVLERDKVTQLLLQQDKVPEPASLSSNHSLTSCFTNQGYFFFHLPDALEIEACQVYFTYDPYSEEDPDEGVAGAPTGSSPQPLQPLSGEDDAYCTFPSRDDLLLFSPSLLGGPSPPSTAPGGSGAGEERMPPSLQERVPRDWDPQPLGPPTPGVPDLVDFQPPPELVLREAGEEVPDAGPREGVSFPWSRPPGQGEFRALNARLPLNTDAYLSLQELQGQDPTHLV
# T1 sequence (looked up) 3: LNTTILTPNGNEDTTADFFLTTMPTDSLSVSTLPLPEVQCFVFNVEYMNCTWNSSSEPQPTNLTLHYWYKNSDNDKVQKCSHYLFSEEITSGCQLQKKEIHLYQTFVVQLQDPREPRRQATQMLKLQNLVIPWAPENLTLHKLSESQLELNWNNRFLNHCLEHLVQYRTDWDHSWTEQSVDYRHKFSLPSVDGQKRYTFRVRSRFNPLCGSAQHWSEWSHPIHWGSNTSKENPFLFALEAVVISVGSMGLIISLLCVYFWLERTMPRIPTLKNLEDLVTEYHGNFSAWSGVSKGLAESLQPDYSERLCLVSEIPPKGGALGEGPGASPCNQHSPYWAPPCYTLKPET
# T2: intermediate affinity IL-2 receptor IL-2Rβγ on human NK cells (human, UniProt P14784 27-551; P31785 23-369)
# T2 sequence (looked up) 1: T1 sequence (looked up) 2
# T2 sequence (looked up) 2: T1 sequence (looked up) 3
# B1: wild-type human IL-2 (ligand)
# chain: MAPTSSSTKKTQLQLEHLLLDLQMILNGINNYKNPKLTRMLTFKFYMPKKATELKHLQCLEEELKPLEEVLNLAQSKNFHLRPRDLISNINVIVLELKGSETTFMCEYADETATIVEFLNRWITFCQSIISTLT
# B2: human IL-2 mutein D20H (ligand)
# chain: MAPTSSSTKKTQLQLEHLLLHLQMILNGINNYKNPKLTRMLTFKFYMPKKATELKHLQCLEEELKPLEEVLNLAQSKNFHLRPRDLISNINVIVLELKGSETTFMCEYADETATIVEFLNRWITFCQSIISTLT
# B3: human IL-2 mutein D20I (ligand)
# chain: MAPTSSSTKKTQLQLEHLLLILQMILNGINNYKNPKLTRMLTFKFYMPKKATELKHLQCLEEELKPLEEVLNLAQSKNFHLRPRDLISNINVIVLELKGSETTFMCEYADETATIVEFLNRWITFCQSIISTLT
# B4: human IL-2 mutein N88G (ligand)
# chain: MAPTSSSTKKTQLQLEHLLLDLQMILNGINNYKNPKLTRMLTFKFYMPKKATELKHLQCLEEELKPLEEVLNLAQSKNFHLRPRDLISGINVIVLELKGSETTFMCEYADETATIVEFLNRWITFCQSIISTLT
# B5: human IL-2 mutein N88I (ligand)
# chain: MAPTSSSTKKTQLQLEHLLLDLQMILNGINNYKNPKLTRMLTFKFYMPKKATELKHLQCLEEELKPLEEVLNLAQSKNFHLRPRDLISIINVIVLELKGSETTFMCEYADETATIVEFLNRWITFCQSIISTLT
# B6: human IL-2 mutein N88R (ligand)
# chain: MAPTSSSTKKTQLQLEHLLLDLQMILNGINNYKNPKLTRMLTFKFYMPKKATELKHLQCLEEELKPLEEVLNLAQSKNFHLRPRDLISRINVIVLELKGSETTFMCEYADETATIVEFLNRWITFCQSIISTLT
# B7: human IL-2 mutein Q126E (ligand)
# chain: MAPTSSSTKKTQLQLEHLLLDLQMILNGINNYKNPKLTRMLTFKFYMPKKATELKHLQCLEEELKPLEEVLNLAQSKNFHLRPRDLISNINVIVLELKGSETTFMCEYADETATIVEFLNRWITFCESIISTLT
# B8: human IL-2 mutein Q126L (ligand)
# chain: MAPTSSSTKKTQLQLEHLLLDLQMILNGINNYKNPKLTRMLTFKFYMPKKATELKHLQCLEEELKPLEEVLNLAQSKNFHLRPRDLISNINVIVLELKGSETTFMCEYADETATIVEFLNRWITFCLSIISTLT
# Columns and labels:
# Assay in all cases: cell-based or functional assay
# [1] = molecular target: T1, high affinity IL-2 receptor IL-2Rαβγ on …
# [2] = molecular target: T2, intermediate affinity IL-2 receptor …
# [3] = molecular target: T1, high affinity IL-2 receptor IL-2Rαβγ on …; remark: listed apart in the source
# [4] = molecular target: T2, intermediate affinity IL-2 receptor …; remark: listed apart in the source
binder,measurement,setting,value
B1,"EC50, T cell (PHA-blast) proliferation assay (Fig. 1A)",[1],~0.15 nM
same,"EC50, T cell (PHA-blast) proliferation assay (Fig. 2A)",[1],~0.15 nM
same,"EC50, T cell (PHA-blast) proliferation assay (Fig. 3A)",[1],~0.04 nM
same,"EC50, T cell (PHA-blast) proliferation assay (Fig. 4A)",[1],~0.15 nM
same,"EC50, T cell (PHA-blast) proliferation assay (Fig. 5A)",[1],~0.15 nM
same,"EC50, T cell (PHA-blast) proliferation assay (Fig. 6A)",[1],~0.008 nM
same,"EC50, T cell (PHA-blast) proliferation assay (Fig. 7A)",[1],~0.05 nM
same,"EC50, NK cell proliferation assay (Fig. 1B)",[2],~0.1 nM
same,"EC50, NK cell proliferation assay (Fig. 2B)",[2],~0.3 nM
same,"EC50, NK cell proliferation assay (Fig. 3B)",[2],~0.2 nM
same,"EC50, NK cell proliferation assay (Fig. 4B)",[2],~0.1 nM
same,"EC50, NK cell proliferation assay (Fig. 5B)",[2],~0.1 nM
same,"EC50, NK cell proliferation assay (Fig. 6B)",[2],~0.05 nM
same,"EC50, NK cell proliferation assay (Fig. 7B)",[2],~0.08 nM
same,"relative activity, T cell (PHA-blast proliferation; EC50 against EC50 of wt IL-2)",[3],1 relative to wt IL-2
same,"relative activity, NK cell (NK cell proliferation; EC50 against EC50 of wt IL-2)",[4],1 relative to wt IL-2
B2,"EC50, T cell (PHA-blast) proliferation assay (Fig. 1A)",[1],~0.2 nM
same,"EC50, NK cell proliferation assay (Fig. 1B)",[2],> 10000 nM
same,"relative activity, T cell (PHA-blast proliferation; EC50 against EC50 of wt IL-2)",[3],0.371 relative to wt IL-2
same,"relative activity, NK cell (NK cell proliferation; EC50 against EC50 of wt IL-2)",[4],9e-05 relative to wt IL-2
B3,"EC50, T cell (PHA-blast) proliferation assay (Fig. 2A)",[1],~0.15 nM
same,"EC50, NK cell proliferation assay (Fig. 2B)",[2],~5000 nM
same,"relative activity, T cell (PHA-blast proliferation; EC50 against EC50 of wt IL-2)",[3],4.6 relative to wt IL-2
same,"relative activity, NK cell (NK cell proliferation; EC50 against EC50 of wt IL-2)",[4],0.00061 relative to wt IL-2
B4,"EC50, T cell (PHA-blast) proliferation assay (Fig. 3A)",[1],~0.005 nM
same,"EC50, NK cell proliferation assay (Fig. 3B)",[2],~30 nM
same,"relative activity, T cell (PHA-blast proliferation; EC50 against EC50 of wt IL-2)",[3],8.33 relative to wt IL-2
same,"relative activity, NK cell (NK cell proliferation; EC50 against EC50 of wt IL-2)",[4],0.00853 relative to wt IL-2
B5,"EC50, T cell (PHA-blast) proliferation assay (Fig. 4A)",[1],~0.4 nM
same,"EC50, NK cell proliferation assay (Fig. 4B)",[2],~5000 nM
same,"relative activity, T cell (PHA-blast proliferation; EC50 against EC50 of wt IL-2)",[3],0.981 relative to wt IL-2
same,"relative activity, NK cell (NK cell proliferation; EC50 against EC50 of wt IL-2)",[4],0.0001 relative to wt IL-2
B6,"EC50, T cell (PHA-blast) proliferation assay (Fig. 5A)",[1],~0.09 nM
same,"EC50, NK cell proliferation assay (Fig. 5B)",[2],~300 nM
same,"relative activity, T cell (PHA-blast proliferation; EC50 against EC50 of wt IL-2)",[3],0.897 relative to wt IL-2
same,"relative activity, NK cell (NK cell proliferation; EC50 against EC50 of wt IL-2)",[4],0.00015 relative to wt IL-2
B7,"EC50, T cell (PHA-blast) proliferation assay (Fig. 6A)",[1],~0.0008 nM
same,"EC50, NK cell proliferation assay (Fig. 6B)",[2],~2 nM
same,"relative activity, T cell (PHA-blast proliferation; EC50 against EC50 of wt IL-2)",[3],10 relative to wt IL-2
same,"relative activity, NK cell (NK cell proliferation; EC50 against EC50 of wt IL-2)",[4],0.025 relative to wt IL-2
B8,"EC50, T cell (PHA-blast) proliferation assay (Fig. 7A)",[1],~0.02 nM
same,"EC50, NK cell proliferation assay (Fig. 7B)",[2],~20 nM
same,"relative activity, T cell (PHA-blast proliferation; EC50 against EC50 of wt IL-2)",[3],3.06 relative to wt IL-2
same,"relative activity, NK cell (NK cell proliferation; EC50 against EC50 of wt IL-2)",[4],0.00447 relative to wt IL-2
